The source gives no read counts; variants with many changes may rest on few reads.

B1: LINE1-mini (parent)
chain: GGCAGAGCUCAACACAGCGUGGCAAAGUGGCUGUGGCUAGACUGCC

This series covers variants of B1. Put plainly: self-cleavage, relative activity (ratio to wild type); higher = more cleavage; in vitro, sequencing; the parent is a self-cleaving ribozyme.
Take G1U G5U A11C G22U: the self-cleavage worked out at 0.05.
Take G2A A11U A12U: the self-cleavage was found to be 0.13.
The same measure for G1U G7U C10A A16G C31U: 0; for G2A C15A C23A A24C C31G U38C: 0.15; for G1U G21C C23A U28A: 0.19.
Turning to G2A C10U U38A, the self-cleavage was found to be 0.08.
As for G2A C3A U9G U28C U32C G35C, the self-cleavage turned out to be 0.36.
In the case of G2A A11C A12U, the self-cleavage was 0.08.
Turning to G2A C8A G27C G30C U34A G35U, the self-cleavage is 0.05.
As for G2A C18A A25G, the figure is 0.15; as for G2A C10A C18G G36U, 0.04.
As for G2A C3U A4G A6C G7U C13G A14G G22C A25G, the figure is 0.11; as for G2A C3U U9A C18U G19C, 0.11; as for G1U G2U A12G A24C, 0.03.
With G2A A4G A11G, the self-cleavage is 0.02.
Take G1U G2C G40A: the self-cleavage stood at 0.01.
The same measure for G1U G2C A11C G21U C46A: 0.03; for G2A A4C G22A C45A: 0.15; for G1U G5A C10U G21C G33U: 0.02.
G2A A4G C10U U28C: the self-cleavage was found to be 0.08.
With G2A A4G U32G, the self-cleavage stood at 0.23.
As for G2A C8A U9G G19U, the self-cleavage was found to be 0.15.
For G2A A11G A12C G44U, the self-cleavage turned out to be 0.01.
G1U U9G C23A G33A G40C: the self-cleavage is 0.01.
As for G1U C37A C45U, the figure is 0.1; as for G2A A16C C23G U34A, 0.02.
Regarding G1U C15U G36C, the self-cleavage stood at 0.02.
The same measure for G1U G21A G35C: 0.02; for G1U U9A G27C: 0.01; for G2A C10U G30C U38C G40C U43A: 0.04.
As for G2A C13U U20G, the figure is 0.3; as for G1U C18U G22C G33A, 0.06.
As for G1U G35U G40A, the figure is 0.05; as for G2A C10A G17A G29U, 0.06.
Regarding G1U G5U U43A, the self-cleavage turned out to be 0.02.
The same measure for G2A A4C C10U U43G: 0.08; for G2A C8A C10U: 0.19.
Turning to G1U C15U G22C G33U, the self-cleavage worked out at 0.01.
G2A C10A A25G G30C G33U: the self-cleavage came out at 0.06.
As for G1U U9A G17U, the figure is 0.01; as for G2A A24G C42U, 0.47.
The same measure for G2A C8A G17C C18G G44C C45U: 0.21.
G1U G2C A12G G40U: the self-cleavage is 0.04.
The same measure for G2A C15A A16U A25C C45G: 0.2; for G1U G2C C10G A12G G17U G35U: 0.01.
As for G2A C8G A26U U32C A41U, the figure is 0.04.
As for G2A A6C C13A U20G G21U U34C, the figure is 0.1; as for G2A A12C A14U U34G U43C, 0.03.
On to G1U G7C A11G G29C, for which the self-cleavage was determined as 0.
For G2A A4U A6U C31A G33U, the self-cleavage came out at 0.07.
G2A A25G G30U U43C: the self-cleavage worked out at 0.04.
As for G2A A6U A11G C42G, the figure is 0.05; as for G1U G33A G36C, 0.02.
As for G1U G29A C45A, the figure is 0.28.
As for G1U G7A C10G G21C A24U U43C C45U, the figure is 0.
Take G1U C15A G36A G40U: the self-cleavage was 0.08.
As for G2A A12G C46G, the self-cleavage worked out at 0.05.
The same measure for G2A C15G G21C: 0.04; for G2A C3U U20C G35U G44U: 0.06.
As for G1U C15G G27C G29C C37A, the figure is 0.01.
The same measure for G2A C8A G29C C31A: 0.4; for G1U U38A A39C C46A: 0.33.
Regarding G1U U9G G19A G21A U38A, the self-cleavage came to 0.06.
Take G1U G2U G22A G30U G35C: the self-cleavage amounted to 0.05.
Consider G1U G19A U32G U34G G36C, for which the self-cleavage was determined as 0.01.
The same measure for G2A C15G G17A G22A G33C: 0.03; for G1U G17U U28C G44A: 0.05; for G1U G2C G19A A24U G44A: 0.22.
As for G2A A6U C10A A14G G17C A26G U43C, the figure is 0.02; as for G2A C3A U34C, 0.56.
As for G2A C10G A16U G36U, the figure is 0.04.
On to G1U U20C A25C A39G, for which the self-cleavage came out at 0.05.
The same measure for G1U G35C C46U: 0.05; for G2A A6C U20A: 0.25; for G1U G30C C31U G40A: 0.03.
The same measure for G1U U9A A14C U20C: 0.03; for G2A A4G G19A G35U: 0.92; for G2A C10A A11G A24C: 0.04.
For G1U U9G A14G C15G U32C U34C C45G, the self-cleavage came out at 0.
Turning to G2A A11C U20G G27C G29A, the self-cleavage stood at 0.01.
In the case of G2A A6C G29U G40A, the self-cleavage came out at 0.13.
As for G1U G7A U32A, the figure is 0.03.
The same measure for G1U U32A C46G: 0.06.
On to G2A C8G C13A G19U U28G, for which the self-cleavage came out at 0.09.
The same measure for G1U U9G G35A: 0.02.
The same measure for G2A C10U A12U A14C G21A U32A A41G: 0.07; for G2A C3U A14C C15U G19A A26U G30A A39C: 0.21.
As for G2A C10A G19U A24G C46A, the figure is 0.06.
In the case of G1U G2U C8A C18G U43C G44C, the self-cleavage came to 0.03.
Regarding G2A C10A C15G C31A G44A, the self-cleavage was found to be 0.03.
With G2A C10A G22U, the self-cleavage worked out at 0.03.
The same measure for G1U G33C C37A U38A: 0; for G1U G7U C31U: 0.03.
Take G2A C10U G19C G36U: the self-cleavage is 0.05.
For the variant G1U G5A A14C G21A, the self-cleavage came out at 0.16.
For the variant G2A C3A C15U G22C C31U G36C, the self-cleavage came to 0.42.
The same measure for G2A A6U A25U A26G U32A C37G: 0.03; for G2A A16U G44U: 0.07.
For the variant G1U G7U U32A G40C C42A, the self-cleavage was 0.02.
As for G1U C13U G44U, the figure is 0.08; as for G2A C3U G19A G30A, 0.73.
With G2A A4G U9A C13A A26C C37A, the self-cleavage came out at 1.4.
The same measure for G2A C3U C18U G35C U38C G40C: 0.03; for G2A A11C G30A G35A C42G: 0.01.
For the variant G1U G7A G21A U28C, the self-cleavage worked out at 0.03.
Regarding G2A C10U G22U, the self-cleavage was 0.1.
The same measure for G1U G2C G22U A25U C31A: 0.01; for G1U G2A U38C G44A: 0.22.
As for G1U C18G G33C, the figure is 0.05; as for G1U G7C C8G A11U C23U G35U C46A, 0.01.
Turning to G1U G17A U34C, the self-cleavage was determined as 0.03.
Take G1U G17U U34A: the self-cleavage was determined as 0.01.
As for G1U G22U U34C, the figure is 0.12; as for G1U G22C C37G, 0.
As for G2A A12C U38A C42A, the figure is 0.04; as for G1U G2C A11G, 0.01; as for G1U G2C C3A G22C, 0.21.
As for G1U G5C U28G, the figure is 0.03; as for G1U G5A A26G, 0.05.
For G1U C23U U28A A41G, the self-cleavage is 0.09.
The same measure for G1U U9A C37U: 0.02; for G1U G2A G30C U34G: 0.01; for G1U G22A A24C: 0.25.
Take G2A A12C C31G G40A: the self-cleavage was 0.02.
On to G2A A12G G30U G40C C46U, for which the self-cleavage was 0.06.
As to G1U G5U G29U, the self-cleavage came out at 0.11.
The same measure for G2A A6C G7U C10A C18A: 0.04; for G1U U34G G35A: 0.03; for G1U G30A G33C: 0.02.
On to G1U C15U G21U, for which the self-cleavage worked out at 0.66.
Consider G2A A4C A41U, for which the self-cleavage was 0.21.
As for G2A C3A G33C C37U, the figure is 0.29; as for G2A C10A A16G, 0.06; as for G1U G40U C46A, 0.03.
Consider G1U G7A C8U U9G C23U C45U, for which the self-cleavage amounted to 0.01.
With G2A C10A G21U U28C, the self-cleavage stood at 0.03.
Turning to G1U G27U G29U, the self-cleavage came to 0.36.
As for G2A C10G G27U G35C C45G, the figure is 0.01; as for G2A C10G G27U U38G, 0.01; as for G1U C13U U38A C42G, 0.02.
Regarding G1U G5A C15U C23A, the self-cleavage stood at 0.22.
As for G1U G7C U32G C45G, the figure is 0.04.
As to G1U G5U G21U G35U G36A C37U A41U, the self-cleavage was 0.2.
The same measure for G2A C3U G17C C23A: 0.59.
The same measure for G2A A24U A25C G29A: 0.43.
For G2A C10U G17C, the self-cleavage was determined as 0.2.
Regarding G1U G2C C8A G19C C31U G36A, the self-cleavage worked out at 0.02.
With G1U G19A A26C C31A C45U, the self-cleavage turned out to be 0.06.
The same measure for G2A A11G U20A A26G G40U A41C: 0.01.
On to G1U G5C U9C C42U, for which the self-cleavage came to 0.01.
The same measure for G1U G2C A12C U20C: 0.01.
Consider G2A A14C G35U C45A, for which the self-cleavage was 0.05.
For G2A C13U U34A, the self-cleavage turned out to be 0.38.
Take G2A C3A G19C G33U: the self-cleavage stood at 1.31.
The same measure for G2A A4U C8A C23G A24C C37U: 0.28; for G2A A6C C10U A12G C15U A16U: 0.03.
The same measure for G2A A11G C13U G29U U34C: 0.05; for G1U C15A G19U U20C A41C: 0.01.
On to G2A A4C A11C A16U G29A, for which the self-cleavage is 0.01.
As for G2A A4C G29U, the figure is 0.17.
Take G1U G21U G40U: the self-cleavage was 0.06.
As for G2A C10A G17C U20A G21U G33A, the figure is 0.11.
As for G1U G2C A4G A14U G19U U43A, the self-cleavage was 0.06.
The same measure for G2A A14C G33A: 0.13; for G1U G29U G33A C46A: 0.04; for G2A A6G C8A G17U G30A C45U: 0.19.
On to G1U G2A U9G G33A A41U, for which the self-cleavage worked out at 0.21.

The values above are taken from the RNAGym collection of RNA variant scans (doi:10.7554/elife.90254).
